The RNAGym collection of RNA variant scans (doi:10.1073/pnas.2313332121)
Variants at the background level are over-represented here.

B1: TPR 5TU (parent)
chain: GGAUCUUCUCGAUCUAACAAAAAAGACAAAUCUGCCACAAAGCUUGAGAGCAUCUUCGGAUGCAGAGGCGGCAGCCUUCGGUGGCGCGAUAGCGCCAACGUUCUCAACUAUGACACGCAAAACGCGUGCUCCGUUGAAUGGAGUUUAUCAUG

Variants of: B1
Experiment: polymerase ribozyme fitness, log enrichment relative to wild type (log ratio); higher = more active; in vitro selection for triplet polymerase activity
Method in brief: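 Fitness measures genotype enrichment against wild-type enrichment on a logarithmic scale, with inverse-variance-weighted averaging of replicates. The logarithm is base 2, and genotypes were kept only with ≥10 input reads and ≥1 read per output in Illumina sequencing. The sequenced libraries came from one triplicate in vitro selection round, including frozen incubation at −7 °C, of PCR-built, transcribed mutant libraries of each subunit of a heterodimeric triplet polymerase ribozyme.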

Variant | polymerase ribozyme fitness (log ratio)
GGAUCUUCUCGAUAUAACAAAAAUGACAAAUCUGCCACAAAGCUUGAGAGCAUCUUCGCAUGCAGAGGCGGCAGCCUUCGGUGGCGCGAUAGGGCCAAUGUUCUCAACUAUGACACGCAAAACGCGUGCUCCGUUGAAGGGAUUUUAUCAUG | ≤ -4.2
GGAUCUUCUCGAUAUAACAAAAAAGACAAAUCUGCCACAAAGCUUGAGAGCAUCUUCGGGUGCAGAGGCGGCAGCCGUCGGUGGCGUGAUAGCGCCAACGUUCUCAACUAUGACACGCAAAACGCGUGCUCGGUUGAAUGGAGUUUAUCAUG | ≤ -4.2
GGAUCUUCUCGAUAUAACAAAAAAGACAGAUCUGCCACAAAGUUUAAGAGCAUCUUCGGAUGCAGAGGCGGCAGCCUUCGGUGGCGCGAUAGCGCAAUCGUUCUCAACUAUGACACGCAAAACGCGUGCUCCGUUGAAUGGAGUUUAUCAUG | ≤ -4.2
GGAUCUUCUCGAUAUAACAAAAAAGACAAAUCUGCCACAAAGCUUGUGAGCAUCUUCGGAUGCAGAGGCGGCAGCCUUCGGUGGCACGAUGGCGCCAACGUUCUCAACUAUGACACGCAAAACGCGUGCUCCGUUGAAUGGAGUUUAUCAUG | ≤ -4.2
GGAUCUUCUCGAUAUAACAAUAAAGUCAAAUCUGCCACAAAGCUUGAGAGCCUCUUCGGAUGCAGAGACGGCAGCCUUCGGUGGCGCGAUAGCGUCAUCGUUCUCAACUAUGACACGCAAAACGCGUGCUCCGUUGAAUGGAGUUUAUCAUG | ≤ -4.2
GGAUCUUCUCGAUAUAACAAAAAAGACAAAUCUGCCACAAAGCUUGAGAGCAUCUUCGGAUGCAGAGGCGGCGGCCUUCGGUGGCACGAUAGCGCCAUCGUUCUCAACUAUGACACGCAAAACGCGUGCUCCGUUGAAUGGAGUUUAUCAUG | -3.58
GGAUCUUCUCGAUAUAACAAAAAAGACAAAUCUGCCACAAAGCUUGAGAGCAUCUUCGGAUGCAGAGGCGGCGGCCUUCAGUUGCGCGAUAGGGCCAACGUUCUCAACUAUGACACGCAAAACGUGUGCGCCGUUGAAUGGAGUUUAUCCUG | ≤ -4.2
GGAUCUUCUCGAUAUAACAAAAAAGACAAAUCUGCCACAAAGCUUGAGCGCAUCUUCGGAUGCAGAGGCGGCAGCCUUCGGUGACGCGAUAGCGCCAACGUUCUCAACUAUGACCCGCAAAACGCGUGCUCCGUUGAAUGGAGUUUAUCAUG | ≤ -4.2
GGAUCUUCUCGAUAUAACAAAAAAGACAAAUCUGCCACAAAGCUUGAGAGCAUCUUCGGGAGCAGAGGCGGCAGCCUUCGGUGGCGCGAUAGCGCCAGCGUUCUCAACGAUGACACGCAAAACGCGUGCUCCGUUGAAUGGAGUUUAUAAUG | ≤ -4.2
GGAUCUUCUCGAUAUAACAAAAAAGACAAAUCUGCCACAACGCUUGAGAGCAUCUUCGGAUGCAGAGGCGGCAGCCUUCGGUGGCGCGAUAGCCCCAACGUUCUCAACUAUGACACGCAAAACGCGUGCUCCGUUGAAUGGAGUUUAUCAUG | -2.95
GGAUCUUCUCGAUAUAACAAAAAAGACGAAUCUGCCACAAAGCUUGAGAGCAUCUUCGGAUGCAGAGGCGGCAGCCUUCGGUGGCUCGAUAGUGCCAACGUUCUCAACUAUGAUACGCAAAACGCGUGCUCCGUUAAAUGGAGUUCAUCAUG | ≤ -4.2
GGAUCUUCUCGAUAUAACGAAAAAGACAGAUCUGCCAUAAUGCUUGAGAGCAUCUUCGGAUGCAGAGGCGGCAGCCUUCGGUGGCGCGAUAGCGCCAACGUUCUCAUCUAUGACACGCAAAACGCGUGCUCCGUUGAAUGGCGUUUAUCAUG | ≤ -4.2
GGAUCUUCUCGAUAUAACAAAAAAGUCAAAUCUGCCACAAAGCUUGAGAGCAUCUUCGGAUGCAGAGGCGGCAGCUUUCGGUGGCGCGAUAGCGCACACGUUCUCAACUAUGACACGGAAAACGCGUGCUCCGUUGAAUGGAGUUUAUCAUG | ≤ -4.2
GGAUCUUCUCGAUAUAACAAAAAAGACAAAUCUGCCACAAAGCUUGAGCGCAUCUUCGGAUGCAGAGGCGGCAGCCUUCGGUGGCUCGAUAGCGCCAACGUUCUCAACUAGGACACGCAAAACGCGUGCUCCGUUGAAAGGAGGUUAUCAUG | ≤ -4.2
GGAUCUUCUCGAUAUAACAAAUAAGACAAACCUGCCACAAAGCUUGAGAGCAACUUCGGAUGCAGAGGCGGCAGCCUUCUGUGGCGCGAUAUCGCCAACGUUCUCAACUAUGACACGCAAAACGCGUGCUCCGUUGAAUGGUGUUUAUCAUG | ≤ -4.2
GGAUCUUCUCGAUAUAACACAAAAGAAAAAUCUGCCACAAAGCAUGAGAGCAUCUUCGGAUGCAGAGGCAGCAGCCUUCGGUAGCGCGAUAGCGCCAACGUUCUCAGCUAUGACACGCAAAACGCGUGCUCCGUGGAAUGGAGUUUAUCAUG | ≤ -4.2
GGAUCUUCUCGAUAUAACAAACUAGACAAAUCUGCCACAAAGCUUGAGAGCAUUUUCGGAUGCAGAGGCGGCAGCCUUCGGUGGCGCGAUAGGGUCAACGUUCUCAACUAUGACACGCAAAACGUGUGCUCAGUUGAAUGGAGUUUAUCAUG | ≤ -4.2
GGAUCUUCUCGAUAUAACAAAAAAGACAAAUCUGCCACUAAGCUUGAGAGCAUCUUCGGAUGCAGAGGUGGCAGCCUUCGGUGGAGCGAUAGCGCCAACGUUCUCAACUAUGACACGCAAAACGCGUGCUCCGUUGAAUGGAGUUUAUCAUG | ≤ -4.2
GGAUCUUCUCGAUAUAUCAAGAAAGACAAAUCUGCCACAAAGCUUGAGAGCAUUUUCGGGUGCAGAGGCGGCAGCCUUCGGUGGCGCGAUAGCGCCAACGUUCUCAACUAUGACACGCAAAACGCGUGCUCCGUUGAAUGGAGUUUAUCAUG | -3.75
